The values that follow come from ChEMBL document CHEMBL4888484, “Replenishing the malaria drug discovery pipeline: Screening and hit evaluation of the MMV Hit Generation Library 1 (HGL1) against asexual blood stage Plasmodium falciparum ,using a nano luciferase reporter read-out” (2022).

Molecules are shown by their SMILES. Among all 150,000 compounds or so, about 540 (0.36%) showed an effect of 50% or more. This is one part of the list.

The assay has as its system Plasmodium falciparum. The assay is described as follows: Primary screen in NF54 nanoGlo assay, in single point, at 2uM, 72h; a lower Z score goes with more inhibition. Type of assay: functional, Erythrocyte. The following applies: timepoint 72 hour.
For the molecule `O=C(c1ccc(OC2CCC2)cc1Cl)N1CC[C@@](F)(CO)C1`, the “% Inhibition” value is -4% and the Z score amounted to 0.46.

Consider `NC(=O)CN1CCC2(CC1)NC(c1ccc(OC(F)(F)F)cc1)=NO2`, for which the “% Inhibition” value worked out at 30% and the Z score is on record as 0.05.

Turning to `CCc1nc(-c2c3n(c(=O)n(Cc4ccc(C(F)(F)F)cc4)c2=O)CCCC3)no1`, the “% Inhibition” value was found to be 1% and the Z score is on record as -0.09.

On to `CC[C@]1(CO)CCCN(C(=O)c2cccc(-c3c(C)cccc3Cl)c2)C1`, for which the “% Inhibition” value is -1% and the Z score stood at 0.17.

As to `CC(C)S(=O)(=O)N1CCN(C(=O)[C@H](Cc2ccccc2)n2cnnn2)CC1`, the “% Inhibition” value is reported as -13% and the Z score worked out at 1.63.

For `O=C(CCc1nc(-c2nnc[nH]2)no1)N1CC[C@H](c2c(F)cccc2F)C1`, the “% Inhibition” value is on record as -17% and the Z score turned out to be 1.94.

With `O=C1CCC(=O)N1CCCc1ccc(Cl)cc1`, the “% Inhibition” value was determined as 2% and the Z score is listed as -0.31.

For the molecule `CCN(CC(C)(C)O)C(=O)NCc1cccc(-n2ccnc2)c1`, the “% Inhibition” value is -7% and the Z score was found to be 0.89.

As to `O=C(Nc1nc2ccccc2s1)C1CC1c1ccccc1` (centres undefined), the “% Inhibition” value was -30% and the Z score came out at 3.52.

In the case of `CCn1cc(C(=O)NC[C@H]2Cc3ccccc3CN2)c(C(C)C)n1`, the “% Inhibition” value is on record as -1% and the Z score worked out at 0.15.

Consider `c1cnc(CN2C[C@@H]3CC[C@H]2CN(C2Cc4ccccc4C2)C3)nc1`, for which the “% Inhibition” value is reported as -9% and the Z score came to 1.62.

For `COc1ccnc(NC(=O)c2ccc(C)[nH]c2=O)c1`, the “% Inhibition” value is on record as -6% and the Z score amounted to 0.75.

As to `COc1ccc(Cl)cc1NC(=O)COC(=O)CCC(=O)Nc1cccc(C(=O)OCC(C)C)c1`, the “% Inhibition” value was -6% and the Z score is 0.96.

`CC1CC(N(C(=O)c2ccco2)c2ccccc2)c2ccccc2N1` (centres undefined): the “% Inhibition” value is listed as -2% and the Z score came to 0.26.

As for `COCCN1C(=O)CC(CC(=O)N2CCCC(C)C2)(c2ccccc2F)C1=O` (centres undefined), the “% Inhibition” value is reported as -9% and the Z score is listed as 1.7.

For the molecule `O=C(O)c1ccc(N[C@H]2CCOC2)c(Br)c1`, the “% Inhibition” value is -10% and the Z score was found to be 0.91.

On to `COc1ccc2c(c1F)CC[C@@H]2Nc1ccc(CN(C(C)=O)C(C)C)cc1`, for which the “% Inhibition” value stood at 0% and the Z score is recorded as -0.03.

As for `C=CCOc1nc(NCC)nc(NCC)n1`, the “% Inhibition” value is recorded as -3% and the Z score worked out at 0.34.

For the molecule `CN(C)S(=O)(=O)N1C[C@H]2CC[C@@H](C1)N(Cc1nc(C(F)(F)F)no1)C2`, the “% Inhibition” value was determined as 1% and the Z score is recorded as -0.15.

Regarding `COc1cc(Cl)c(NS(=O)(=O)c2cc(-c3cc(C)no3)ccc2OC)c(OC)c1`, the “% Inhibition” value is listed as -8% and the Z score came out at 0.99.

For `COc1ccnc(CC(=O)N2CCC(Cc3cccc(F)c3F)CC2)c1`, the “% Inhibition” value is reported as -2% and the Z score is given as 0.28.

`O=S(=O)(NCCc1c[nH]c2ncccc12)c1ccc(Cl)cc1`: the “% Inhibition” value was -8% and the Z score turned out to be 0.89.

Turning to `Cc1c(-c2c(-c3ccccc3)ncn2Cc2noc(-c3ccco3)n2)cnn1C`, the “% Inhibition” value is on record as 6% and the Z score was -0.88.

Regarding `Cc1ccc(Cl)c(S(=O)(=O)Cc2cnn(CCF)c2)c1`, the “% Inhibition” value was -12% and the Z score came to 2.03.

Turning to `Cn1cc(C(=O)N2CC3(COC(C)(C)OC3)C2)nn1`, the “% Inhibition” value is -7% and the Z score is given as 1.12.

On to `COc1cnc(C(=O)NC[C@@H]2CCCC[C@H]2O)nc1`, for which the “% Inhibition” value stood at 6% and the Z score is on record as -0.88.

For the molecule `COc1cc([C@H]2NC3(CCCCC3)C(=O)N2C)cc(OC)c1OC`, the “% Inhibition” value was 5% and the Z score is given as -0.51.

Take `CCCS(=O)(=O)N(c1cc(-n2ncc(=O)n(C)c2=O)c(F)cc1Cl)S(=O)(=O)CCC`: the “% Inhibition” value is -1% and the Z score came to 0.2.

As to `CCOc1ccc(C[C@@H]2CC[C@H](CN3CCOCC3)O2)cc1CNC`, the “% Inhibition” value is reported as 18% and the Z score was -2.34.

Turning to `O=C1C[C@H](Cc2ccc(C(=O)Nc3nc4ccccc4[nH]3)cc2)C(=O)N1`, the “% Inhibition” value was 7% and the Z score is recorded as -0.81.

Regarding `O=C(Nc1ccc2c(c1)OCO2)N1C2CCC1COC2`, the “% Inhibition” value came out at 1% and the Z score is on record as -0.09.

Regarding `O=C(O)c1noc2cc(Br)ccc12`, the “% Inhibition” value was -12% and the Z score turned out to be 1.41.

Consider `CN(CCCNC(=O)c1ccco1)CC(F)(F)F`, for which the “% Inhibition” value was -8% and the Z score is recorded as 0.99.

As for `CN(C[C@H]1CCCCO1)C(=O)c1cc2c(Cl)cccc2[nH]1`, the “% Inhibition” value was -7% and the Z score was found to be 1.22.

For `COc1ccc(C2=NN(c3ccccc3)[C@H](c3cn(-c4ccccc4)nc3-c3ccc(F)cc3)C2)cc1`, the “% Inhibition” value amounted to 3% and the Z score is -0.38.

Consider `CCCC[C@H](Nc1nccc(-n2cccn2)n1)C1CCC1`, for which the “% Inhibition” value is -7% and the Z score came out at 1.19.

As to `COc1ccnc(NC(=O)c2cc(C3CC3)no2)c1`, the “% Inhibition” value is recorded as -17% and the Z score is reported as 3.21.

In the case of `O=C(Cc1cc(Cl)ccc1Br)N1CC(O)C1`, the “% Inhibition” value was 0% and the Z score was determined as 0.07.

Consider `CCOC(=O)c1nccn1-c1ccc(OC[C@H]2CCCO2)cc1`, for which the “% Inhibition” value is reported as -3% and the Z score turned out to be 0.44.

For `COc1cccc(CNC(=O)CN2C(c3ccccc3)=C[C@@H](c3ccc(Cl)cc3)n3nnnc32)c1`, the “% Inhibition” value was 2% and the Z score is -0.16.

On to `O=C(CC1CCCCCC1)N1CCCC[C@H]1c1nc(=O)[nH][nH]1`, for which the “% Inhibition” value came out at 8% and the Z score is -1.31.

As to `O=C(CCCn1cccn1)NS(=O)(=O)c1ccc2ccccc2c1`, the “% Inhibition” value was -7% and the Z score is 0.99.

One may read the % Inhibition as the change of the read-out against control, counted positive when it falls.
